Assay results: the supplement of paper PMC3334620
In all, about 33,000 sequences were measured (“E-score (-0.5 to 0.5)”: median about -0.01, highest 2% from about 0.26 on). This is one part of the list.

Each sequence was assayed against Ste12 (UniProt P13574) (assay: PBM E-score (8-mer binding enrichment) (E-score (-0.5 to 0.5)); higher = stronger / more preferred TF binding; most listed sequences are background and not binding sites). Conditions: protein concentration: 200 nM; construct: GST-DNA-binding domain.
In short: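 The E-score, a modified Wilcoxon-Mann-Whitney statistic, was computed by the Universal PBM Analysis Suite for every ungapped eight-base word pooled with its reverse complement. Scans behind it were normalised with masliner after bound GST-tagged yeast transcription factors were detected with fluorescent anti-GST. The proteins, at about 100-200 nM, had been applied to universal all-10-mer Agilent arrays made double-stranded by primer extension.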
GAGAGTCC was tested, and the “PBM E-score” value was -0.218. CTTTATGA was tested, and the “PBM E-score” value was -0.0114. With ACCTCGAT the “PBM E-score” value was -0.0751. With AAGACAGG the “PBM E-score” value was 0.0129. With AAATAAAG the “PBM E-score” value was 0.172. TCACTAAA was tested, and the “PBM E-score” value was 0.161. For AGCACAGG, the “PBM E-score” value was -0.149. In the case of CGACTAAA, the “PBM E-score” value is reported as -0.0822. With ATCACGAA the “PBM E-score” value was 0.156. In the case of TCCGCGAA, the “PBM E-score” value is reported as 0.106. With AGAACTGC the “PBM E-score” value was -0.131. With GACAGTTA the “PBM E-score” value was 0.0282. In the case of AGATCACG, the “PBM E-score” value is reported as -0.0999. For CTCGACCA, the “PBM E-score” value was -0.173. With AACTATAG the “PBM E-score” value was 0.0196. GGTGCACC was tested, and the “PBM E-score” value was -0.107. With CAGAATCA the “PBM E-score” value was 0.075. CATCATCC was tested, and the “PBM E-score” value was 0.0337. AATGTACA was tested, and the “PBM E-score” value was 0.112. With CCTAGTAA the “PBM E-score” value was 0.0288. For CCATGCGC, the “PBM E-score” value was -0.153. AATTGGAC was tested, and the “PBM E-score” value was 0.0593. With ACGCAGTC the “PBM E-score” value was -0.237. GGCTACGA was tested, and the “PBM E-score” value was -0.141. In the case of AGGACCCA, the “PBM E-score” value is reported as -0.203. With CACGCCTC the “PBM E-score” value was -0.0775. In the case of CCGAGGCA, the “PBM E-score” value is reported as 0.0971. In the case of ATTGCTCG, the “PBM E-score” value is reported as 0.0147. CCGTCTAC was tested, and the “PBM E-score” value was 0.0342. In the case of CTTTCAAA, the “PBM E-score” value is reported as 0.246. For ACCTGACT, the “PBM E-score” value was 0.0963. AAACGGAT was tested, and the “PBM E-score” value was 0.265. With GCACTTAA the “PBM E-score” value was 0.0284. For GCCGAATA, the “PBM E-score” value was 0.0561. With CCGTGAAG the “PBM E-score” value was -0.185. With GTCATAGA the “PBM E-score” value was 0.151. In the case of ATTGGTGG, the “PBM E-score” value is reported as 0.035. For ACGTACAT, the “PBM E-score” value was -0.0117. GCAGTCCC was tested, and the “PBM E-score” value was -0.0962. With GGGGTGAA the “PBM E-score” value was 0.0185. With CTTAATCC the “PBM E-score” value was 0.00134. For CATCGGTA, the “PBM E-score” value was -0.00861. With GTTCTTAA the “PBM E-score” value was 0.053. In the case of CTTTCTGC, the “PBM E-score” value is reported as 0.0703. With AGCCACAA the “PBM E-score” value was 0.0574. With AAGTCACG the “PBM E-score” value was 0.0198. With ATAATCCC the “PBM E-score” value was 0.16. With CAAAATCC the “PBM E-score” value was 0.251. In the case of ATAACCAA, the “PBM E-score” value is reported as 0.294. For GACCTCGC, the “PBM E-score” value was -0.086. With CAGTTTAC the “PBM E-score” value was -0.053. With AGTTTAGC the “PBM E-score” value was -0.00744. In the case of AATGCACG, the “PBM E-score” value is reported as -0.0154. In the case of CGTTTAAA, the “PBM E-score” value is reported as 0.111. GAAGACAC was tested, and the “PBM E-score” value was -0.0891. With CCGATGGA the “PBM E-score” value was -0.0721. For TCTACGCA, the “PBM E-score” value was -0.068. AGAGTCGG was tested, and the “PBM E-score” value was 0.114. In the case of CACCAATG, the “PBM E-score” value is reported as 0.00052. AGAAAAGA was tested, and the “PBM E-score” value was 0.297. For GAACTCGA, the “PBM E-score” value was -0.0129. CGAAGTTC was tested, and the “PBM E-score” value was -0.0661. With AACCCGTG the “PBM E-score” value was -0.315. In the case of AACTTGCC, the “PBM E-score” value is reported as -0.0957. In the case of CGGTCGGC, the “PBM E-score” value is reported as -0.14. AGAGTTAA was tested, and the “PBM E-score” value was 0.0905. For AACGAGGA, the “PBM E-score” value was 0.0429. In the case of GAACCCGC, the “PBM E-score” value is reported as -0.0485. GGAATTCC was tested, and the “PBM E-score” value was -0.0447. In the case of TCTAAGCA, the “PBM E-score” value is reported as 0.0247. AATAGTGG was tested, and the “PBM E-score” value was -0.0341. For AAAAATCT, the “PBM E-score” value was 0.318. For GCAACCGA, the “PBM E-score” value was -0.185. GGATGTGA was tested, and the “PBM E-score” value was 0.146. ATAATCTC was tested, and the “PBM E-score” value was 0.127. In the case of TGAAGCAA, the “PBM E-score” value is reported as -0.0563. For CCTGACTA, the “PBM E-score” value was -0.0255. In the case of GTTTGTCA, the “PBM E-score” value is reported as 0.0464. ATGCCTAC was tested, and the “PBM E-score” value was -0.19. AGAATTAG was tested, and the “PBM E-score” value was 0.177. AACCTGCT was tested, and the “PBM E-score” value was 0.0136. For CCGCGCTC, the “PBM E-score” value was 0.051. CATTTACG was tested, and the “PBM E-score” value was -0.044. With ATCGTTAG the “PBM E-score” value was 0.00868. For AATCGAGA, the “PBM E-score” value was 0.0678. With ATGCGAAC the “PBM E-score” value was -0.0082. GGTCTTTA was tested, and the “PBM E-score” value was 0.0687. For ATGCGTTA, the “PBM E-score” value was 0.0391. For GAATCGCA, the “PBM E-score” value was -0.0334. With CGTAGCGC the “PBM E-score” value was -0.104. In the case of GCTTCTTA, the “PBM E-score” value is reported as -0.035. With CGTAGTAG the “PBM E-score” value was -0.151. In the case of ATTTCGAG, the “PBM E-score” value is reported as 0.146. In the case of ATACGGAG, the “PBM E-score” value is reported as -0.0967. AATAGCAA was tested, and the “PBM E-score” value was 0.00204. In the case of AGGGGCAG, the “PBM E-score” value is reported as -0.0336. ACAAGACA was tested, and the “PBM E-score” value was 0.187. With ACCGATAC the “PBM E-score” value was -0.0196. With GCCGTAGA the “PBM E-score” value was -0.0722. GGTAAGTA was tested, and the “PBM E-score” value was 0.02. With AAAAGCAA the “PBM E-score” value was 0.135. ATCCCGAC was tested, and the “PBM E-score” value was 0.119. For ATTGGTAG, the “PBM E-score” value was -0.0808. GTCAGGTA was tested, and the “PBM E-score” value was 0.0732. ATAGAGCA was tested, and the “PBM E-score” value was 0.0229. For CGTAAACA, the “PBM E-score” value was 0.186. GTATGTGA was tested, and the “PBM E-score” value was 0.0194. With GACGTAGC the “PBM E-score” value was -0.254. For ACGCTACG, the “PBM E-score” value was -0.231. CTGTCCTC was tested, and the “PBM E-score” value was -0.215. In the case of CATATGTA, the “PBM E-score” value is reported as 0.0691. CTACTTCC was tested, and the “PBM E-score” value was -0.00174. For TAGTGATA, the “PBM E-score” value was -0.126. CGAGGTAC was tested, and the “PBM E-score” value was -0.0522. For AAATGGGC, the “PBM E-score” value was 0.0167. In the case of ATATTCTA, the “PBM E-score” value is reported as 0.183. For AGCTGACG, the “PBM E-score” value was -0.126. For GGACCAAC, the “PBM E-score” value was -0.203. In the case of CGACATGA, the “PBM E-score” value is reported as 0.0321. TAGCTTCA was tested, and the “PBM E-score” value was -0.183. With CTTCATTA the “PBM E-score” value was 0.136. With ATTTAAGC the “PBM E-score” value was 0.214. With CGAATCCA the “PBM E-score” value was 0.0639. In the case of TGTATACA, the “PBM E-score” value is reported as -0.112. With GTGCATTA the “PBM E-score” value was -0.0593. With GCAGCCTA the “PBM E-score” value was -0.177. With AGAGAATA the “PBM E-score” value was 0.0624. With AAACATTG the “PBM E-score” value was 0.229. In the case of AGTAATTC, the “PBM E-score” value is reported as 0.0643. For AGTCGAGC, the “PBM E-score” value was -0.233. In the case of CACATCGG, the “PBM E-score” value is reported as 0.0461. GGCACCTA was tested, and the “PBM E-score” value was -0.0649. With AGCATCTA the “PBM E-score” value was 0.0183. AATAAGGG was tested, and the “PBM E-score” value was -0.0431. With CTATCCAA the “PBM E-score” value was -0.137. In the case of AACATCGG, the “PBM E-score” value is reported as 0.121. For TCCCTTCA, the “PBM E-score” value was -0.0551. For ACACCCAG, the “PBM E-score” value was -0.0755. For CTCAATAC, the “PBM E-score” value was 0.184. GTTCATGA was tested, and the “PBM E-score” value was 0.0856. With AGCAGAAA the “PBM E-score” value was 0.15. ATGCTCAG was tested, and the “PBM E-score” value was -0.0728. With AGAGATGA the “PBM E-score” value was 0.0335. AGCGCATG was tested, and the “PBM E-score” value was -0.00165. In the case of CATTAGCG, the “PBM E-score” value is reported as 0.0204. With TAGTCCCA the “PBM E-score” value was -0.139. With GATTCCTA the “PBM E-score” value was 0.019. ACTAGAAA was tested, and the “PBM E-score” value was 0.244. With AACCCAAC the “PBM E-score” value was 0.175. For ATGAAGCA, the “PBM E-score” value was -0.0547. In the case of ACTTTGAC, the “PBM E-score” value is reported as -0.101. For CAACACCA, the “PBM E-score” value was -0.167. GGTGATGA was tested, and the “PBM E-score” value was 0.0671. TACGAGCA was tested, and the “PBM E-score” value was -0.108. With GGAGATGA the “PBM E-score” value was -0.0923. For AAACGAAC, the “PBM E-score” value was 0.103. With CGCTACCA the “PBM E-score” value was -0.0682. ACAAACAC was tested, and the “PBM E-score” value was 0.266. With GTTGCTGA the “PBM E-score” value was -0.0566. With CCTTTTCC the “PBM E-score” value was 0.0263. AACCAGCG was tested, and the “PBM E-score” value was -0.0325. For AGGGATAC, the “PBM E-score” value was -0.227. For GGTCAACA, the “PBM E-score” value was 0.0377. CATTTTGC was tested, and the “PBM E-score” value was 0.178. For CATCAACC, the “PBM E-score” value was 0.0722. For GCTGGTAA, the “PBM E-score” value was -0.0346. With CGGCATCA the “PBM E-score” value was 0.0216. With AGTCGGAT the “PBM E-score” value was 0.05. CGCTATGA was tested, and the “PBM E-score” value was -0.0983. With ATGCTAGG the “PBM E-score” value was -0.152. CTCGAGAA was tested, and the “PBM E-score” value was -0.00898. AGTAGTTA was tested, and the “PBM E-score” value was -0.12.
